{"source": "PubChem BioAssay AID760", "about": "(NMMLSC, 2007)", "note": "Out of some 190,000 compounds screened, about 360 (0.19%) were called active. This list was built around the results that the source calls inconclusive (neither active nor inactive); the mix of calls is not that of the screen.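 How the source made its calls: active means GTP binding activity at least 20 points away from 100%, either lowered or raised; inconclusive means signal likely due to the compound's own green fluorescence; inactive means the rest.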"}
{"target": "Ras-related protein Rab-2A (Canis lupus familiaris) (UniProt P61105)", "test": "Rab2 wt fluorescent GTP binding changes, either direction – biochemical, dog, bead-based flow cytometry, multiplex, primary screen (AID 760);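 further: 0% = beads with excess unlabeled GTP and 100% = no-compound control corrected for plate trend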", "conditions": "GST-Rab2 wt beads, Bodipy-GTP binding, at 10 µM"}
{"smiles": "CC1=C(C)[N+](=O)C2(O)CCCCC2(C)N1[O-]", "note": "(centres undefined)", "GTP binding activity": "inconclusive: 104%"}
{"smiles": "COCCCNC(=S)NCCCNc1nc2cc3c(cc2cc1C#N)OCO3", "GTP binding activity": "inconclusive: 90%"}
{"smiles": "CN(C(=O)CSc1ncnc2scc(-c3ccccc3)c12)C1CCS(=O)(=O)C1", "note": "(centres undefined)", "GTP binding activity": "inconclusive: 111%"}
{"smiles": "CCOC(=O)c1ccc(NC(=O)C2(c3ccccc3)CCOCC2)cc1", "GTP binding activity": "inconclusive: 102%"}
{"smiles": "CC1Cc2ccccc2N1C(=S)NC(=O)c1ccco1", "note": "(centres undefined)", "GTP binding activity": "inconclusive: 92%"}
{"smiles": "COCCCNC(=O)c1cc(C(=O)c2ccccc2Br)c[nH]1", "GTP binding activity": "inconclusive: 92%"}
{"smiles": "O=C(CSc1n[nH]c(=O)[nH]c1=O)N/N=C/c1ccccc1", "GTP binding activity": "inconclusive: 262%"}
{"smiles": "Cc1onc(-c2ccccc2Cl)c1C(=O)NCc1ccc(N2CCCC2=O)cc1", "GTP binding activity": "inconclusive: 100%"}
{"smiles": "O=C(O)CCc1ccc(-c2cccs2)o1", "GTP binding activity": "inconclusive: 89%"}
{"smiles": "Fc1cccc(NC(=S)NNc2c3ccccc3nc3ccccc23)c1", "GTP binding activity": "inconclusive: 86%"}
{"smiles": "COc1cccc(C(=O)COc2cccc(NC(=O)c3ccco3)c2)c1", "GTP binding activity": "inconclusive: 91%"}
{"smiles": "Fc1ccccc1NC(=S)N/N=C/c1ccccc1Br", "GTP binding activity": "inactive: 101%"}
{"smiles": "O=C(NCc1nc2ccccc2[nH]1)C1=C[C@H](c2ccc3c(c2)OCO3)C[C@H](OCCCCO)O1", "GTP binding activity": "inactive: 97%"}
{"smiles": "COCCOC(=O)C1=C(C)Nc2nc(C)nn2C1c1ccccc1", "note": "(centres undefined)", "GTP binding activity": "inconclusive: 103%"}
{"smiles": "CCOc1ccc(OCC)c(NC(=O)CCSCCc2ccccn2)c1", "GTP binding activity": "inactive: 101%"}
{"smiles": "Cc1cc(N2C(=O)C3CC=CCC3C2=O)cc(C)c1Br", "note": "(centres undefined)", "GTP binding activity": "inactive: 97%"}
{"smiles": "CC(C)c1cc(C(=O)Nc2ccc3c(c2)OCO3)no1", "GTP binding activity": "inconclusive: 103%"}
{"smiles": "Cn1[nH]c(C(F)(F)F)cc1=O", "GTP binding activity": "inactive: 100%"}
{"smiles": "CCn1c(COc2cc(C)ccc2C(C)C)nnc1SCC(=O)Nc1nccs1", "GTP binding activity": "inactive: 95%"}
{"smiles": "COc1ccc(-n2cccc2/C=C2/NC(=O)N(c3cccc(Cl)c3)C2=O)cc1", "GTP binding activity": "inactive: 100%"}
{"smiles": "CCOc1ccccc1OCCn1nnc2ccccc21", "GTP binding activity": "inconclusive: 96%"}
{"smiles": "CCCCN1C(=O)C(NC(=O)C2CC2)(C(F)(F)F)C2=C1CC(C)(C)CC2=O", "note": "(centres undefined)", "GTP binding activity": "inactive: 101%"}
{"smiles": "Cc1ccc(C(=O)Nc2ncc(Cc3ccc(SC(F)F)cc3)s2)cc1", "GTP binding activity": "inactive: 101%"}
{"smiles": "FC(F)(F)c1ccccc1NC(=S)NC1CCN(Cc2ccccc2)CC1", "GTP binding activity": "inconclusive: 99%"}
{"smiles": "CSc1ncccc1C(=O)OCC(=O)N1CCOCC1", "GTP binding activity": "inconclusive: 537%"}
{"smiles": "Cc1cc(/C=N/NC(=O)C(=O)NCc2ccccn2)c(C)n1-c1cccc(Br)c1", "GTP binding activity": "inconclusive: 95%"}
{"smiles": "COc1ccc(C(=O)NCCc2cc3ccc(C)c(C)c3[nH]c2=O)cc1OC", "GTP binding activity": "inconclusive: 90%"}
{"smiles": "CCn1c(=N)c(C(=O)NCCCOC)cc2c(=O)n3cccc(C)c3nc21", "GTP binding activity": "inconclusive: 91%"}
{"smiles": "CSc1ccc(S(=O)(=O)Nc2ccc3c(c2)OCCO3)cc1", "GTP binding activity": "inconclusive: 101%"}
{"smiles": "Cc1nonc1-c1csc(N)n1", "GTP binding activity": "inactive: 98%"}
{"smiles": "CC(C)c1[nH]nc2c1C1(CCN(Cc3ccccc3)CC1)C(C#N)=C(N)O2", "GTP binding activity": "inconclusive: 109%"}
{"smiles": "CCn1c(CNc2cccc(C(F)(F)F)c2)n[nH]c1=S", "GTP binding activity": "inactive: 101%"}
{"smiles": "OCCC1CN(Cc2ccc3c(c2)CCO3)CCN1Cc1ccc(F)cc1", "note": "(centres undefined)", "GTP binding activity": "inconclusive: 96%"}
{"smiles": "c1ccc(-c2nnc3sc(-c4ccncc4)nn23)cc1", "GTP binding activity": "inconclusive: 87%"}
{"smiles": "CC1=C(C(=O)Nc2ccccc2)C(c2ccc(Cl)cc2)n2c(s/c(=C/c3cccc(OCC(=O)O)c3)c2=O)=N1", "note": "(centres undefined)", "GTP binding activity": "inconclusive: 74%"}
{"smiles": "COc1ccc(/C=N\\NC(=O)CCc2c(C)n[nH]c2C)c(OC)c1OC", "GTP binding activity": "inconclusive: 99%"}
{"smiles": "COc1cc2[nH]c(=S)nc(NC3CCCC3)c2cc1OC", "GTP binding activity": "active: 60%"}
{"smiles": "Cc1ccc(S(=O)(=O)/N=C(\\N)Nc2nc(C)c3ccccc3n2)cc1", "GTP binding activity": "inactive: 94%"}
{"smiles": "Cc1cc(NC(=O)/C(C#N)=C/c2ccc(-c3ccc(SC(F)F)cc3)o2)n(-c2ccccc2)n1", "GTP binding activity": "inconclusive: 139%"}
{"smiles": "COc1ccccc1NC(=O)C1=C(C)NC2=C(C(=O)CCC2)C1c1ccc2c(c1)OCO2", "note": "(centres undefined)", "GTP binding activity": "inconclusive: 101%"}
{"smiles": "O=C(COc1ncnc2cc([N+](=O)[O-])ccc12)NC(=O)NC1CCCCC1", "GTP binding activity": "active: 79%"}
{"smiles": "Cc1ccc(C)n1-c1ccc(-c2ccnc(N)n2)cc1", "GTP binding activity": "inactive: 95%"}
{"smiles": "Cc1nc2nc(SCC(=O)O)nn2c(C)c1Cc1ccccc1Cl", "GTP binding activity": "active: 78%"}
{"smiles": "O=[N+]([O-])c1cccc(S(=O)(=O)c2ccc(NCCO)c([N+](=O)[O-])c2)c1", "GTP binding activity": "inactive: 96%"}
{"smiles": "Cc1cc(-c2n[nH]c(=S)n2/N=C/C(Cl)=C/c2ccccc2)n[nH]1", "GTP binding activity": "inactive: 85%"}
{"smiles": "C=CCn1c(-c2cc3cccc(OC)c3o2)n[nH]c1=S", "GTP binding activity": "inconclusive: 87%"}
{"smiles": "COc1ccc(NC(=O)COc2ccccc2C#N)c(S(=O)(=O)N2CCCCC2)c1", "GTP binding activity": "inconclusive: 102%"}
{"smiles": "O=C(COc1ccc([N+](=O)[O-])cc1)Nn1cnnc1", "GTP binding activity": "inconclusive: 90%"}
{"smiles": "CC(=O)NCCn1c(SCC(=O)OCc2ccccc2)nc2ccccc2c1=O", "GTP binding activity": "inconclusive: 102%"}
{"smiles": "CN(C)CCN(C(=O)c1ccc(N2C(=O)CCC2=O)cc1)c1nc2cc3c(cc2s1)OCO3", "GTP binding activity": "inconclusive: 111%"}
{"smiles": "COc1ccc(-n2c(N)c(C(=O)NCc3ccco3)sc2=S)cc1", "GTP binding activity": "inconclusive: 104%"}
{"smiles": "CCN1C(=O)C(CC(=O)Nc2ccc(F)cc2)N(CCc2ccc(OC)cc2)C1=S", "note": "(centres undefined)", "GTP binding activity": "inconclusive: 189%"}
{"smiles": "O=C(CSc1nnc2c(Cl)cc(Cl)cn12)N1CCN(c2ccc(F)cc2)CC1", "GTP binding activity": "inactive: 98%"}
{"smiles": "CCOC(=O)c1c(NC(=O)CSc2ncnc3[nH]ncc23)sc2c1CCC(C)C2", "note": "(centres undefined)", "GTP binding activity": "inconclusive: 92%"}
{"smiles": "CCOc1cc(/C=N/NC(=O)c2ccc(CN3CCOCC3)cc2)ccc1OC", "GTP binding activity": "inconclusive: 93%"}
{"smiles": "CC(C)c1nc2sc3c(=O)[nH]cnc3c2c2c1CCC2", "GTP binding activity": "inconclusive: 85%"}
{"smiles": "O=C(Cn1c(=S)[nH]c2ccccc2c1=O)N1CCN(c2ccc(F)cc2)CC1", "GTP binding activity": "inactive: 97%"}
{"smiles": "Cc1nnnn1CC(=O)Nc1cccc([N+](=O)[O-])c1", "GTP binding activity": "inactive: 101%"}
{"smiles": "COc1ccc(C2C(C(=O)NCc3ccco3)CCC(=O)N2c2ccc(OC)cc2)cc1", "note": "(centres undefined)", "GTP binding activity": "inconclusive: 102%"}
{"smiles": "Cc1cccc(N2CCN(C(=O)Cc3ccc(Br)cc3)CC2)c1C", "GTP binding activity": "inconclusive: 91%"}
{"smiles": "CCCNC(=O)c1ccc(C2SCC(=O)N2CCc2ccccc2)cc1", "note": "(centres undefined)", "GTP binding activity": "inactive: 97%"}
{"smiles": "CCOC(=O)C1(Cc2ccccc2)CCCN(CCO)C1", "note": "(centres undefined)", "GTP binding activity": "inconclusive: 118%"}
{"smiles": "COc1ccccc1NC(=S)N(CCCN1CCOCC1)Cc1cccs1", "GTP binding activity": "inactive: 99%"}
{"smiles": "O=C(CNC(=S)N(Cc1ccccc1)Cc1cccnc1)N1CCOCC1", "GTP binding activity": "inactive: 98%"}
{"smiles": "COc1ccc(/C=N/NC(=O)CCSc2nc3ccccc3s2)cc1OC", "GTP binding activity": "inconclusive: 93%"}
{"smiles": "Cc1cccc(CN2C(=O)CCSc3ccc(Cl)cc32)c1", "GTP binding activity": "inconclusive: 102%"}
{"smiles": "O=C(CSc1nnc(-c2cccs2)o1)c1cccs1", "GTP binding activity": "inactive: 96%"}
{"smiles": "Cc1nc2ccc(-c3nc4ccc(N)cc4[nH]3)cc2[nH]1", "GTP binding activity": "inconclusive: 143%"}
{"smiles": "O=[N+]([O-])c1cc(/C=N/N/C(=N/c2ccccn2)c2ccccn2)ccc1O", "GTP binding activity": "inconclusive: 89%"}
{"smiles": "COc1ccc(-c2nc(-c3cccs3)c(-c3cccs3)[nH]2)cc1O", "GTP binding activity": "inconclusive: 79%"}
{"smiles": "COCCn1cnnc1SCC(=O)Nc1sccc1C(N)=O", "GTP binding activity": "inconclusive: 95%"}
{"smiles": "COc1ccccc1/C=C1/SC(=O)N(CCC(=O)Nc2ccc(S(=O)(=O)Nc3nccs3)cc2)C1=O", "GTP binding activity": "inconclusive: 91%"}
{"smiles": "N#CCCN1CCN(C2=NC(=O)/C(=C\\c3cccs3)S2)CC1", "GTP binding activity": "inactive: 98%"}
{"smiles": "COc1ccc(-n2cc(-c3ccccc3)c3c(N4CCOCC4)ncnc32)cc1", "GTP binding activity": "inactive: 96%"}
{"smiles": "CCOc1ccccc1NC(=O)NC(C)c1ccncc1", "note": "(centres undefined)", "GTP binding activity": "inactive: 98%"}
{"smiles": "Cc1ccc(C)c(C(C)NC(=O)CC#N)c1", "note": "(centres undefined)", "GTP binding activity": "inconclusive: 95%"}
{"smiles": "Cc1nc2cc(NC(=O)NC3CC3)ccc2n1C", "GTP binding activity": "inconclusive: 96%"}
{"smiles": "Clc1ccc(Cc2nc(-c3ccncc3)no2)cc1", "GTP binding activity": "inconclusive: 91%"}
{"smiles": "COC(=O)Nc1ccc(S(=O)(=O)N2c3ccccc3CCC2C)cc1", "note": "(centres undefined)", "GTP binding activity": "inactive: 98%"}
{"smiles": "CC(CC(C)C(=O)Nc1ccccc1C(C)(C)C)C(=O)O", "note": "(centres undefined)", "GTP binding activity": "inactive: 99%"}
{"smiles": "CCOc1ccccc1Nc1nnc(SCC(=O)NC(Cc2c[nH]c3ccccc23)C(=O)O)s1", "note": "(centres undefined)", "GTP binding activity": "inconclusive: 90%"}
{"smiles": "CCSc1nnc(-c2ccccc2N=Cc2c(C)[nH]n(-c3ccccc3)c2=O)c(=O)[nH]1", "GTP binding activity": "inconclusive: 89%"}
{"smiles": "O=C(CCc1nnc(CCC2CCCCC2)o1)NCc1ccon1", "GTP binding activity": "inactive: 100%"}
{"smiles": "O=C(Cn1c2[n+](c3ccccc31)CC(O)CS2)c1ccccc1", "note": "(centres undefined)", "GTP binding activity": "inactive: 98%"}
{"smiles": "CCSCc1nnc(SCC(=O)Nc2ccc(OC)cc2)n1C", "GTP binding activity": "inactive: 99%"}
{"smiles": "O=C(Nc1nc(-c2ccccn2)cs1)C1CC(=O)N(c2ccc3c(c2)OCCO3)C1", "note": "(centres undefined)", "GTP binding activity": "inactive: 94%"}
{"smiles": "CCCCc1nc2n[nH]c(N)c2c2c1CCCC2", "GTP binding activity": "inconclusive: 90%"}
{"smiles": "CSC1=C(C#N)C(c2ccc(C)s2)CC(=O)N1", "note": "(centres undefined)", "GTP binding activity": "inconclusive: 103%"}
{"smiles": "CCN1CCN(C(C(=O)NC2CCCCC2)c2ccc(Cl)cc2)CC1", "note": "(centres undefined)", "GTP binding activity": "inactive: 89%"}
{"smiles": "O=C(NCc1ccccc1)N(Cc1cc2cc3c(cc2[nH]c1=O)OCCO3)CC1CCCO1", "note": "(centres undefined)", "GTP binding activity": "inconclusive: 103%"}
{"smiles": "Cc1c(Cl)c([N+](=O)[O-])nn1Cc1ccc(C(=O)N/N=C\\c2ccccn2)o1", "GTP binding activity": "inactive: 80%"}
{"smiles": "Cc1cc(=O)oc2c3c4c(cc12)OCCN4CCC3", "GTP binding activity": "inconclusive: 91%"}
{"smiles": "COc1ccc(NC(=O)CCN2CCN(S(=O)(=O)c3ccc(Cl)cc3)CC2)cc1", "GTP binding activity": "inconclusive: 92%"}
{"smiles": "FC(F)(F)c1cccc(Oc2nc(-c3ccccc3)nnc2C(F)(F)F)c1", "GTP binding activity": "inconclusive: 105%"}
